Screen size: about 48,000 compounds; about 450 (0.94%) were called active. About 19% were inconclusive and are not listed. Calls follow the shape of the dose curve; as a rule, active = well fitted inhibition curve with a large enough effect; inconclusive = small, poorly fitted or top-dose-only effect; inactive = no such curve, though single readings can be large or run the other way. The list shows a part of the results.
Assay: Primary qHTS for Identification of Small Molecule Inhibitors of Huntingtin Promoter Activity; also: nearly all actives have a fitted effect of over 50% in size
Conditions: HEK293 HTT promoter firefly luciferase reporter (activity 0% = vehicle and -100% = no light), 24 h; series mostly up to 57.5 µM; activity change, negative = inhibition: at the top concentration
How it was run: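 HEK293 cells carrying firefly luciferase reporters were seeded at 2,500 per well in Opti-MEM and cultured for 24 h. They were then treated with compounds at up to 57.5 uM final for 24 h at 37 degrees C before Dual-Glo luminescence readout.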

Activity change, negative = inhibition, inactive:
CCc1cccc(NC(=O)CSc2ncc3c(n2)-c2ccccc2N(Cc2ccccc2C)S3(=O)=O)c1 -15.3%, CCOc1ccc(-c2cc(C(=O)NCc3ccccc3)c3c(-c4ccc(CC)cc4)[nH]nc3n2)cc1 -8.97%, Cc1ccccc1Nc1c2c(nc3nncn13)CCC2 -22.9%, COc1ccc(NC(=O)Cc2csc(C)n2)cc1 14.1%, Oc1ccc(CCNCCCCCCNCCc2ccccc2)cc1O 3.24%, CC(=O)c1ccc(NC(=O)NCCc2c[nH]c3ccccc23)cc1 18.7%, CCCCCn1c(=O)[nH]c2cc(C(=O)Nc3ccc(F)cc3)ccc2c1=O 8.35%, CCOC(=O)C1CCN(S(=O)(=O)c2cc(-c3cc(C)no3)ccc2C)CC1 -28.3%, Cc1cccc(-c2nc3scc(CCNC(=O)c4ccccc4Cl)n3n2)c1 -13.1%, Cc1cccc(NC(=O)CSc2nnc(CNC(=O)c3c(F)cccc3Cl)o2)c1C -0.974%, CC(C)c1nn2c(=O)cc(COC(=O)c3ccc(NC(=O)CCc4ccccc4)cc3)nc2s1 23.6%, CC1CCN(CCNC(=O)c2ccc(Cn3c(SCc4ccccc4)nc4cccnc43)cc2)CC1 11.6%, CC(C)c1ccc(NC(=O)c2ccc(NC(=O)CCS(=O)(=O)c3cccs3)cc2)cc1 -18.7%, Cc1ccc(CCNc2nc3c(S(=O)(=O)c4ccc(C)cc4)nnn3c3ccsc23)cc1 0.466%, Cc1ccc(-n2ncc3c(NCCCc4ccccc4)ncnc32)cc1C 2.43%, Cc1c(NC(=O)c2sc3c([N+](=O)[O-])cccc3c2Cl)cccc1-c1nc2ccccc2o1 9.09%, Cc1ccc(-c2c3c(=O)n(C)c(=O)n(C)c3c3c(C(F)(F)F)nc4ccccc4n23)cc1 -24.7%, CCS(=O)(=O)N1CC(=O)N(c2cccc(C)c2C)C(C)(C(=O)NC2CCCCC2)C1 (centres undefined) 3.89%, CCOC(=O)c1[nH]c(C)c(CCC(=O)Nc2ccc(N(CC)CC)cc2C)c1C -11.4%, CCc1ccc(CNC(=O)CCN2C(=O)COc3ccccc32)cc1 -17.9%, [O-][n+]1cccc(CO)c1 9.32%, COc1cc(NC(=O)Cn2c(C)cc3ccccc3c2=O)cc(OC)c1OC -2.37%, COc1cc(OC)cc(C(=O)Nc2c(C(=O)Nc3ccc(F)cc3)oc3ccccc23)c1 3.93%, COC(=O)c1cc2oc(C)cc2n1CC(=O)Nc1ccc(C)cc1C -5.9%, O=C(Cn1c(=O)n(Cc2ccccc2)c(=O)c2oc3ccccc3c21)Nc1ccc(Cl)cc1 -2.12%, Cc1ccc(/C=C/c2onc(C)c2S(=O)(=O)N2CCC(C(=O)N3CCOc4ccccc43)CC2)cc1 -26.2%, Oc1ccc(Cl)cc1Nc1nc2ccccc2n2cnnc12 -14%, CCOC(=O)c1ccc(NC(=O)Cc2ccc(-n3c(CC)nc4cccnc43)cc2)cc1 -13.1%, NC(=O)c1cc(S(=O)(=O)N2CCCCC2)cs1 -9.23%, O=C(CCS(=O)(=O)c1ccc2c(c1)NC(=O)CO2)Nc1cccc(C(F)(F)F)c1 -4.86%, CCNC(=O)CC1C(=O)N(c2ccc(C)cc2)C(=O)N1Cc1ccc(C)cc1 (centres undefined) -10.9%, COc1ccc(NC(=O)Cn2nnc(C(=O)NCc3ccccc3Cl)c2N)cc1Cl -29.2%, CCC(=C(c1ccccc1)c1ccc(OCCN(C)C)cc1)c1ccccc1 -16.1%, CCn1cc(S(=O)(=O)c2cc(C)cc(C)c2)c(=O)c2cc(F)c(N3CCC(C)CC3)cc21 -20.5%, CCOc1ccc(N(C(=O)c2ccc(C)cc2)S(=O)(=O)c2ccc3c(c2)n(C)c(=O)n3C)cc1 -0.418%, Cc1ccc2cccc(NC(=O)c3ccc(-c4cc(Cl)ccc4Cl)o3)c2n1 -18.3%, O=C(NCc1ccc(Cl)cc1)c1cc2ccccc2o1 -8.25%, Cc1ccc(C)n1-c1nnc(N2CCCC(C(=O)NCc3ccc(F)cc3)C2)s1 (centres undefined) -15.3%, CCN(CC)C(=O)Cn1c(=O)n(CCCCCC(=O)NCc2ccccc2Cl)c(=O)c2sccc21 -9.13%, COc1ccc(OC)c(NC(=O)c2ccc3c(c2)c(C)c(C)n3Cc2ccc(F)cc2)c1 -10.5%, O=C(NCc1cccc(Br)c1)c1cccn1-c1nnc(N2CCCCC2)s1 -44.3%, Cc1ccc(NC(=O)Cn2c(C)cc(C)c(C#N)c2=O)cc1F 11.2%, Cc1cc(C)c(/C=C/c2onc(C)c2S(=O)(=O)N2CCC(C(=O)N3CCN(c4ccc(Cl)cc4)CC3)CC2)c(C)c1 -9.09%, Cc1ccc(C(=O)Nc2nc3n(n2)C(c2ccccc2)C=C(c2ccccc2)N3)cc1 (centres undefined) -17.1%, COc1ccc(-c2nc3ccccc3s2)cc1NC(=O)c1cc2ccccc2o1 6.13%, NC(=O)OCC(COC(N)=O)c1ccccc1, CN1CCN(C(c2cccc(Br)c2)c2sc3nc(-c4ccco4)nn3c2O)CC1 (centres undefined) -1.41%, CCC(=O)N1CCc2cc(Br)cc(S(=O)(=O)CCC(=O)NCCc3ccccc3Cl)c21 -3.62%, Cc1ccnc(NS(=O)(=O)c2ccc(N)cc2)n1 0.042%, CCOc1ccc(-c2nonc2NC(=O)c2ccc(C)cc2)cc1OCC -3.35%, O=C(Cc1csc2ccccc12)NCc1ccccc1F 26.2%, CCOc1ccc(-c2nc(SCC(=O)Nc3ccc4c(c3)OCCO4)c(-c3ccc(F)cc3)[nH]2)cc1 -19.6%, CCC(=O)OCCCNc1nc(-c2ccc(Cl)cc2)nc2ccccc12 -28.6%, CCc1cccc(-n2nnc(-c3nc(-c4cccs4)no3)c2N)c1 54.2%, CN[C@H]1CCc2cc(OC)c(OC)c(OC)c2-c2ccc(OC)c(=O)cc21 -25.3%, Clc1ccc2nc(-c3ccc(Br)o3)c(Nc3ccc4c(c3)OCCO4)n2c1 32.1%, COc1cccc(OC)c1C(=O)Nc1cccc(-c2nc3cc(C)cc(C)c3o2)c1 -16.9%, COc1ccc(S(=O)(=O)N(C)Cc2nc(-c3cccc(C)c3)no2)cc1 -21.4%, O=C(CSc1nc2ccsc2c(=O)n1Cc1ccccc1F)NCc1ccccc1 -6.47%, CCc1ccc(NC(=O)N(Cc2ccc(C)cc2)Cc2cccn2-c2nnc(N3CCCC3=O)s2)cc1 -11.9%, CCOC(=O)c1c(C)c(-c2ccccc2)n(CC(=O)NCCc2ccc(C)cc2)c1C -3.89%, CCOC(=O)c1ccc(NC(=O)c2cc(=O)c3cc(CC)ccc3o2)cc1 24.9% [at 11.5 µM], COc1ccc(-c2cc(C(F)(F)F)nc(SCC(=O)NCCc3ccc(OC)c(OC)c3)n2)cc1 -4.5%, Cc1ccc(NC(=O)N2CCC(CN3CCC(C)CC3)CC2)cc1F 14.7%, CCCc1cc(=O)n2[nH]c(-c3ccc(C)cc3)nc2n1 32.4%, Cc1ccc(NC(=O)C2CCCN(c3nnc(-n4c(C)ccc4C)s3)C2)cc1Cl (centres undefined) -5.23%, COc1cccc(CNC(=O)C(NS(=O)(=O)c2ccc3nc(C)sc3c2)C(C)C)c1 (centres undefined) -3.39%, Cc1cccc(NC(=O)CSc2nnc(C)c(=O)[nH]2)c1 -8.25%, CCS(=O)(=O)NCC(c1ccco1)N1CCN(c2ccc(OC)cc2)CC1 (centres undefined) -10.2%, Cc1ccccc1CN1c2ccccc2-c2nc(SCC(=O)NCCc3ccccc3)ncc2S1(=O)=O -9.58%, CCN(CC)c1ccc(-n2nc3cc(C)c(NC(=O)c4ccccc4F)cc3n2)cc1 -2.93%, Cc1cccc(NC(c2cccc(F)c2)c2ccc3ccc(C)nc3c2O)n1 (centres undefined) -2.27%, NC(=O)CSc1nc2ccc(NC(=O)COc3ccccc3)cc2s1 -7.93%, NCCNCCNCCN 3.08%, CCCn1c(=N)c(C(=O)NC2CCCC2)cc2c(=O)n3cc(C)ccc3nc21 4.38%, CC1CCC(NC(=O)c2ccc3c(c2)N(Cc2ccccc2F)C(=O)c2ccccc2S3)CC1 (centres undefined) 28.4%, c1ccc(-c2cc(-c3ccccc3)c3c(n2)-c2ccccc2OC3)cc1 -8.86%, Cc1nc2ccc(S(=O)(=O)NC(C(=O)NCc3ccccc3Cl)C(C)C)cc2s1 (centres undefined) -7.14%, Cc1ccc2c(CC(=O)N3CCN(c4cccc(Cl)c4)CC3)coc2c1 -3.88%, CCCCNc1ccc(-c2nc(-c3ccccc3)no2)cc1[N+](=O)[O-] 11.2%, CSc1ncc(Cl)c(C(=O)NCc2ccc(C)cc2)n1 -15.9%, COc1ccc(OC)c(CNS(=O)(=O)c2c(C(=O)N3CCC(C)CC3)c(C)n(C)c2C)c1 -13.1%, Cc1cc(C)cc(NC(=O)Cn2nnc(C(=O)NCCc3ccccc3)c2N)c1 -3.78%, CCOc1ccc(C(=O)NCCc2sc(-c3ccc(C)cc3)nc2C)cc1 -19.3%, COc1cc(Nc2nc(SCc3ccccc3F)nc3ccccc23)cc(OC)c1 -24.4%, Cc1ccc(CCNC(=O)c2ccc(CS(=O)(=O)c3ccc(Br)cc3)o2)cc1 -12.2%, CCOc1ccccc1NC(=O)CSc1c(C)cnc2c1c(=O)n(C)c(=O)n2C -17.8%, CC1=C(C(=O)Nc2c(C)cc(C)cc2C)C2(CCN(C(C)C)CC2)OC1=O -22.5%, CC1=C(C(=O)Nc2cccc(C)c2C)C2(CCCCC2)OC1=O -12.9%, COc1ccc(CCNC(=O)c2cnc3sc(N4CCCCCC4)nn3c2=O)cc1OC 3.24%, CCOCCCNC(=O)C(c1ccc(OC)cc1)N(Cc1cccs1)C(=O)c1ccccc1O (centres undefined) -22.1%, COc1ccccc1N1CCN(CCCNC(=O)c2cnn(-c3ccccc3Cl)c2C2CCN(C(=O)OC(C)(C)C)CC2)CC1 -13.7%, CC(C)NC(=O)CSc1nc2ccccc2nc1N1CCCCC1 -11%, COc1ccc(C(c2c(C)n(C)n(-c3ccccc3)c2=O)c2c(C)n(C)n(-c3ccccc3)c2=O)cc1O -14.4%, Cc1ccc(N2CC(NC(=O)Cc3cccs3)CC2=O)cc1 (centres undefined) -12.8%, COc1cc(OC)c(NC(=O)Nc2nnc(N(C)C3CCCCC3)s2)cc1Cl 5.48%, CCOc1cccc2sc(N(Cc3cccnc3)C(=O)c3ccco3)nc12 -15.4%, COc1ccc(-c2cc3c(=O)n(CC(=O)Nc4ccccc4C(F)(F)F)ccn3n2)cc1OC -6.45%, CC(=O)c1ccc(NC(=O)CN(C)S(=O)(=O)c2cc3c(cc2C)NC(=O)CO3)cc1 -4.47%
